# Laboratory results reported in the supplement of paper PMC12632987.
# Whole data set: some 4,500 sequences, median “median log2 fold change of GCK-ALFA target abundance (FLAG IP / Myc IP barcode read proportion)” near 0.078, cut for the lowest 2% near -0.6. This is one part of the list.
# B1: GBRAP_11_2859 (protein)
# chain: LKEKLKEAAELARKAVKALEELLKKGVDDEELRKEIEKLLEELLKLAKEYGDKDEIKLAEIALEDFKEAQKDPERAEEHLQRALAALRVLEGNLLLRIDE
# B2: GBRAP_83_6979 (protein)
# chain: KEKIVVAAPADRIDEAVEIAIDLHKEEGKEVELEIIVTPEDIDRVLEGIERLIKEIKNVEIRILGVGMTEEQAEELEKRIKEIAKKNGANPKIEVYLEEP
# B3: GBRAP_9_7145 (protein)
# chain: REEMIKKIREVIEDMFEEVKEVVPEEVKPLVEKLTKEALERFDKVVKDKSKTEEEIRDEAIELIDEFAKTVKAKVSPEIAKIVEAIALTAKLEIEEIYEE
# B4: GBRAP_52_6241 (protein)
# chain: MREEMRRIAEEALEKVKAGDLEGARKIFKEVAETWNDEEIEIFIDEFAELAAKARKEDIDDVWKLTEIAAEALEEAGKPDILVDDLEAKTAAALVKVEAK
# B5: GBRAP_160_4568 (protein)
# chain: MERVEEFLRELREDVEETLERTRDDSVANIRTAVVGTVGAHAMEAAEDPAFSDEMVDAILDAGDRIAAALDALADASYEEIRATVLAIIDDLAARVLALA
# B6: GBRAP_160_4637 (protein)
# chain: SPAAADLKALIDEYTAFALEEVDAGDIEGALATLRMMVGDLVLAAEESPDFSEEDVDALDALGRAHVERFEANRDASPEELKALIEEGAAELKALVEEFA
# B7: GBRAP_184_5137 (protein)
# chain: MLLRRAIEAETPEEAIAGAREALEEARAAGAALLLSIELEGLSPEEVAEVARAVRALAEELGLEDVTVILEVEADEEEADIVIKAADEAGVRVVVALLEE
# B8: GBRAP_125_3001 (protein)
# chain: SKEELAADMREIALAVGFPESLAELLAQEVLAGSVKGALAAFALALGDEELAELIDQLTEEEAAAVVRELAAYAREKGPISEEEAAAKGRELAEAALAKR
# Target: GABARAP, O95166
# Sequence (O95166 whole entry, the tested form may be a part): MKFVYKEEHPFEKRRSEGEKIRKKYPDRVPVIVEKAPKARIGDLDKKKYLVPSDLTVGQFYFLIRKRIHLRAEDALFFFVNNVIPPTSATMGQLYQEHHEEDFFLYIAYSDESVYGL
# Test: median log2 fold change of GCK-ALFA target abundance (FLAG IP / Myc IP barcode read proportion) (log2 ratio); each designed protein is fused to an ALFA-tag nanobody in HEK293 cells to bring the named protein to FLAG-tagged glucokinase (GCK); Myc marks an untargeted standard; higher = target protein stabilised (more abundant)
# Details: target protein: 3xFLAG-MCP-GCK-ALFA reporter; HEK293 landing pad (RPLP)
# Summary of the method: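 HEK293 landing-pad cells received a recombined binder library fused to the ALFA nanobody and were induced with 2 μg mL^−1 doxycycline, then transfected with a plasmid encoding a FLAG-tagged target and a Myc-tagged standard. Lysates were collected after 48 h for anti-FLAG and anti-Myc immunoprecipitation, and the circular RNA barcodes were reverse transcribed, amplified and sequenced. Target abundance for each binder is the median log2 ratio of FLAG to Myc barcode read proportions. Barcodes had to reach a proportion of at least 10^−7 in both replicates, each binder needed at least 3 barcodes per replicate, a pseudocount of 10^−6 was applied, and the two replicates were pooled.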
row,Binder,median log2 fold change
1,B1,0.415
2,B2,0.0981
3,B3,0.154
4,B4,0.081
5,B5,0.154
6,B6,-0.0635
7,B7,0.0237
8,B8,0.0611
